Measurements reported in the supplement of paper PMC9135407.
Where “and” joins values, the source holds several entries; their conditions need not be identical. Equal values may be shown once. Where a name gives a salt, the structure may show the parent alone. Hit rate of the full screen: of about 5,800 compounds, about 620 (11%) showed activity.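 The calls were made as follows: active = score above a cut-off or among the top three wells of a plate; in these data no inactive exceeds 0.85.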 Only a part is listed here, and it is no random draw.

Test system: primary human hepatic stellate cells (donor 1)
Experiment: scaled lipid accumulation score (0 = DMSO-like, 1 = nortriptyline-like); higher = stronger HSC inactivation (lipid re-accumulation), active = hit call of the paper
Details: 48 h
Method: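 Primary lipid accumulation screen in primary human hepatic stellate cell myofibroblasts (donor 1, passage 8) in 384-well plates. 100 nL of library compound was pin-transferred into 30 µL medium in duplicate, and cells were treated for 48 h. The 'Scaled' score combines distance from plate baseline, toxicity and reproducibility penalties, and is normalised to nortriptyline (positive) and DMSO (negative) controls on each plate. A hit is defined as scaled >0.85 or among the top 3 wells per plate.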

[1] = library stock concentration: 3.33 mM
[2] = library stock concentration: 10 mM
[3] = library stock concentration: 5.9 mM
[4] = library stock concentration: 80 uM
[5] = library stock concentration: 400 uM
[6] = library stock concentration: 2 mM
[7] = library stock concentration: 1 mM

Cc1[nH]c(=O)c(C#N)cc1-c1ccncc1 [Milrinone]
scaled lipid accumulation score: inactive: ≤ 0
scaled lipid accumulation score [1]: inactive: 0.027
scaled lipid accumulation score (library stock concentration: 9.5 mM): inactive: 0.029
scaled lipid accumulation score [2]: inactive: ≤ 0 and inactive: 0.237
scaled lipid accumulation score (library stock concentration: 23.7 mM): inactive: ≤ -0.016

CC(C)[C@H](CO)Nc1nc(Nc2cccc(Cl)c2)c2ncn(C(C)C)c2n1 [Purvalanol A]
scaled lipid accumulation score [1]: inactive: ≤ 0
scaled lipid accumulation score [2]: inactive: 0.148

CCNC(=O)C1=C(c2ccc(OC)cc2)C(=C2C=C(Cl)C(O)=CC2=O)NN1
scaled lipid accumulation score [2]: active: 0.897

CCCOc1ccc(/C=C2/SC(=O)NC2=O)cc1 [PIM1/2 Kinase Inhibitor VI]
scaled lipid accumulation score [1]: inactive: 0.001

O=C(Nc1ccccc1)c1ccccc1O [Salicylanilide]
scaled lipid accumulation score [1]: inactive: ≤ 0
scaled lipid accumulation score (library stock concentration: 9.4 mM): inactive: 0.019
scaled lipid accumulation score [2]: inactive: 0.041

NC(=O)N1c2ccccc2CC(O)c2ccccc21 (stereo not given) [Licarbazepine]
scaled lipid accumulation score [2]: inactive: 0.008

COc1cc(/C=C/C(=O)N2CCC=CC2=O)cc(OC)c1OC [Piperlongumine]
scaled lipid accumulation score: inactive: 0.77

CN(C)c1ccc2nc3ccc(=[N+](C)C)cc-3sc2c1 [Methylene blue]
scaled lipid accumulation score [3]: inactive: 0.252

COc1ccc(C2C(=O)c3ccccc3C2=O)cc1 [Anisindione]
scaled lipid accumulation score (library stock concentration: 7.9 mM): inactive: ≤ 0
scaled lipid accumulation score [2]: inactive: ≤ 0

CCc1nc(-c2cccc(C)c2)c(-c2ccnc(NC(=O)c3ccccc3)c2)s1
scaled lipid accumulation score [4]: inactive: 0.072
scaled lipid accumulation score [5]: inactive: ≤ 0 and inactive: ≤ -0.005
scaled lipid accumulation score [6]: inactive: ≤ 0 and inactive: ≤ -0.005
scaled lipid accumulation score [1]: inactive: ≤ 0
scaled lipid accumulation score [2]: inactive: ≤ 0 and inactive: 0.036 and inactive: 0.188

Cc1cccc(C)c1NC(=O)C1CCCCN1C (stereo not given) [Mepivacaine hydrochloride]
scaled lipid accumulation score (library stock concentration: 7.1 mM): inactive: 0.247
scaled lipid accumulation score [2]: inactive: 0.119

Cc1cccc(C)c1NC(=O)C1CCCCN1C (stereo not given)
scaled lipid accumulation score [2]: inactive: ≤ 0

Cc1cccc(C)c1NC(=O)C1CCCCN1C (stereo not given) [Mepivacaine HCl]
scaled lipid accumulation score [1]: inactive: 0.001
scaled lipid accumulation score [2]: inactive: 0.079

CN1C(C(=O)Nc2ccccn2)=C(O)c2sccc2S1(=O)=O [Tenoxicam]
scaled lipid accumulation score: inactive: ≤ 0
scaled lipid accumulation score [1]: inactive: ≤ 0
scaled lipid accumulation score [3]: inactive: ≤ 0
scaled lipid accumulation score [2]: inactive: ≤ 0

N#Cc1ccc2[nH]cc(CCCCN3CCN(c4ccc5oc(C(N)=O)cc5c4)CC3)c2c1 [Vilazodone HCl]
scaled lipid accumulation score [1]: inactive: 0.512

CC(C)OC(=O)CCC/C=C\C[C@@H]1[C@@H](/C=C/[C@@H](O)CCc2ccccc2)[C@H](O)C[C@@H]1O [17-phenyl trinor Prostaglandin F2.alpha. isopropyl ester]
scaled lipid accumulation score [7]: inactive: ≤ 0

CC(=O)Oc1ccc2c(c1)CC[C@@H]1[C@@H]2CC[C@]2(C)[C@@H](OC(C)=O)CC[C@@H]12 [Estradiol diacetate]
scaled lipid accumulation score [2]: inactive: ≤ 0

Cc1ncc([N+](=O)[O-])n1CC(O)CCl (stereo not given) [Ornidazole]
scaled lipid accumulation score: inactive: 0.004
scaled lipid accumulation score [1]: inactive: ≤ 0
scaled lipid accumulation score (library stock concentration: 9.1 mM): inactive: ≤ 0
scaled lipid accumulation score [2]: inactive: 0.055

Cc1ncc([N+](=O)[O-])n1CC(O)CCl (stereo not given)
scaled lipid accumulation score [2]: inactive: ≤ 0

O=C(CCCC[C@@H]1SC[C@@H]2NC(=O)N[C@@H]21)NCCCC[C@H](NC(=O)CCN1C(=O)C=CC1=O)C(=O)O [3-(N-Maleimidopropionyl)-biocytin]
scaled lipid accumulation score [7]: inactive: ≤ 0

C[C@]12CC[C@H]3C(=CCc4cc(O)ccc43)[C@@H]1CCC2=O [Equilin]
scaled lipid accumulation score: inactive: 0.045
scaled lipid accumulation score (library stock concentration: 7.5 mM): inactive: ≤ 0
scaled lipid accumulation score [2]: inactive: 0.026

C[C@]12C=CC(=O)C=C1CC[C@@H]1[C@@H]2[C@@H](O)C[C@@]2(C)[C@H]1CC[C@]2(O)C(=O)COP(=O)(O)O
scaled lipid accumulation score [2]: inactive: ≤ 0

N=C(N)N
scaled lipid accumulation score [2]: inactive: ≤ 0

N=C(N)N [Guanidine HCl]
scaled lipid accumulation score [1]: inactive: ≤ 0
scaled lipid accumulation score [2]: inactive: ≤ -0.001

NC(N)=NCCNS(=O)(=O)c1cccc2cnccc12
scaled lipid accumulation score (library stock concentration: 17 mM): inactive: 0.047

NC(N)=NCCNS(=O)(=O)c1cccc2cnccc12 [HA 1004, Dihydrochloride]
scaled lipid accumulation score [1]: inactive: ≤ 0

C=C[C@H]1CN2CC[C@H]1C[C@@H]2[C@@H](O)c1ccnc2ccc(OC)cc12 [Quinidine sulfate]
scaled lipid accumulation score [2]: inactive: 0.364

C=C[C@H]1CN2CC[C@H]1C[C@@H]2[C@@H](O)c1ccnc2ccc(OC)cc12 [Quinidine hydrochloride monohydrate]
scaled lipid accumulation score: inactive: 0.282
scaled lipid accumulation score [2]: inactive: 0.436

C=C[C@H]1CN2CC[C@H]1C[C@@H]2[C@@H](O)c1ccnc2ccc(OC)cc12 [Quinidine gluconate]
scaled lipid accumulation score [2]: inactive: 0.228

CNC(=O)[C@H]1O[C@@H](n2cnc3c(NCc4cccc(I)c4)ncnc32)[C@H](O)[C@@H]1O
scaled lipid accumulation score [2]: inactive: 0.186 and inactive: 0.035

CCCCC[C@H](O)/C=C/[C@@H]1[C@H]2C[C@@H](CCCCC(=O)O)O[C@H]2C[C@H]1O [6.alpha.-Prostaglandin I1]
scaled lipid accumulation score [7]: inactive: 0.002

c1ccc(CN(CC2=NCCN2)c2ccccc2)cc1 [Antazoline hydrochloride]
scaled lipid accumulation score: inactive: 0.544
scaled lipid accumulation score [2]: inactive: 0.11

c1ccc(CN(CC2=NCCN2)c2ccccc2)cc1 [Antazoline phosphate]
scaled lipid accumulation score [2]: inactive: 0.143

c1ccc(CN(CC2=NCCN2)c2ccccc2)cc1 [Antazoline HCl]
scaled lipid accumulation score [1]: inactive: ≤ 0
scaled lipid accumulation score [2]: inactive: 0.363

CN(C)Cc1ccc(S(=O)(=O)n2ccc(/C=C/C(=O)NO)c2)cc1 [Resminostat]
scaled lipid accumulation score [1]: inactive: 0.499
scaled lipid accumulation score [2]: inactive: 0.806

Nc1ncnc2n[nH]c(Nc3ccc(F)cc3)c12
scaled lipid accumulation score [7]: inactive: ≤ 0
scaled lipid accumulation score [1]: inactive: ≤ -0.009
scaled lipid accumulation score [2]: inactive: 0.176 and inactive: ≤ 0 and inactive: ≤ -0.001

CC[C@H](C)C[C@H](C)CCCCCCCCC(=O)N[C@H]1C[C@@H](O)[C@@H](NCCN)NC(=O)[C@@H]2[C@@H](O)CCN2C(=O)[C@H]([C@H](O)CCN)NC(=O)[C@H]([C@H](O)[C@@H](O)c2ccc(O)cc2)NC(=O)[C@@H]2C[C@@H](O)CN2C(=O)[C@H]([C@@H](C)O)NC1=O [Caspofungin Acetate]
scaled lipid accumulation score [1]: inactive: ≤ 0
scaled lipid accumulation score [2]: inactive: ≤ 0

COc1cc(/C=C/C(=O)N2CCCCCCC2)cc(OC)c1OC
scaled lipid accumulation score [2]: inactive: ≤ 0

CC(C)C(=O)Oc1ccc(CO)cc1[C@H](CCN(C(C)C)C(C)C)c1ccccc1.O=C(O)C=CC(=O)O [Fesoterodine Fumarate]
scaled lipid accumulation score [2]: active: 1.13

O=C(O)C1=CCCN(CCON=C(c2ccccc2)c2ccccc2)C1 [NO-711 hydrochloride]
scaled lipid accumulation score [2]: inactive: ≤ -0.055

O=C(O)C1=CCCN(CCON=C(c2ccccc2)c2ccccc2)C1
scaled lipid accumulation score [2]: inactive: 0.046

Clc1ccc(N2CCN(Cc3cc4ccccn4n3)CC2)cc1
scaled lipid accumulation score [2]: inactive: ≤ 0

CC(C(=O)O)c1ccc(C(=O)c2ccccc2)s1 (stereo not given) [Tiaprofenic acid]
scaled lipid accumulation score: inactive: ≤ 0

CC[C@H](CO)Nc1nc(NCc2ccc(-c3ccccn3)cc2)c2ncn(C(C)C)c2n1 [CR8, (R)-Isomer]
scaled lipid accumulation score [1]: inactive: ≤ 0

O=C(O)CCC/C=C\CC1C(O)CC(O)C1/C=C/C(O)COc1cccc(Cl)c1 (stereo not given)
scaled lipid accumulation score [2]: inactive: ≤ -0.001

O=C(O)CCC/C=C\CC1C(O)CC(O)C1/C=C/C(O)COc1cccc(Cl)c1 (stereo not given) [Cloprostenol]
scaled lipid accumulation score [7]: inactive: ≤ -0.021

CCCCC[C@H](O)/C=C/C=C\CCCCCCCC(=O)O
scaled lipid accumulation score (library stock concentration: 100 uM): inactive: ≤ -0.021

NC(=O)NS(=O)(=O)c1ccc(N)cc1
scaled lipid accumulation score [2]: inactive: ≤ 0

CC(=O)N(CC(O)CN(C(C)=O)c1c(I)c(C(=O)NCC(O)CO)c(I)c(C(=O)NCC(O)CO)c1I)c1c(I)c(C(=O)NCC(O)CO)c(I)c(C(=O)NCC(O)CO)c1I (stereo not given) [Iodixanol]
scaled lipid accumulation score: inactive: ≤ 0

O=C(Nc1ccc(I)cc1)NC1CCCCC1
scaled lipid accumulation score [2]: active: 0.938

CCCCCCCCCCCC[N+](C)(C)CCOc1ccccc1 [Domiphen Bromide]
scaled lipid accumulation score [1]: inactive: 0.455
scaled lipid accumulation score [2]: inactive: 0.052

C=CCSCC1Nc2cc(Cl)c(S(N)(=O)=O)cc2S(=O)(=O)N1 (stereo not given) [Althiazide]
scaled lipid accumulation score: inactive: ≤ 0
scaled lipid accumulation score (library stock concentration: 5.2 mM): inactive: ≤ 0
scaled lipid accumulation score [2]: inactive: ≤ 0

NC(=O)c1cccc(N)c1 [3-aminobenzamide (3-ABA)]
scaled lipid accumulation score (library stock concentration: 36.7 mM): inactive: ≤ -0.021

NC(=O)c1cccc(N)c1 [3-aminobenzamide]
scaled lipid accumulation score [2]: inactive: ≤ 0

NC(=O)c1cccc(N)c1 [3-Aminobenzamide]
scaled lipid accumulation score [1]: inactive: ≤ 0
scaled lipid accumulation score [2]: inactive: ≤ 0

Cc1ccc(-n2nc(C(C)(C)C)cc2NC(=O)Nc2ccc(OCCN3CCOCC3)c3ccccc23)cc1 [BIRB 796 (Doramapimod)]
scaled lipid accumulation score [1]: inactive: 0.017
scaled lipid accumulation score [2]: inactive: ≤ 0

Cc1ccc(-n2nc(C(C)(C)C)cc2NC(=O)Nc2ccc(OCCN3CCOCC3)c3ccccc23)cc1
scaled lipid accumulation score [4]: inactive: ≤ -0.009
scaled lipid accumulation score [5]: inactive: ≤ -0.009
scaled lipid accumulation score [6]: inactive: 0.044
scaled lipid accumulation score [2]: inactive: ≤ -0.009

CNC(=O)c1ccc(C)c(-n2c(C)cc(OCc3ccc(F)cc3F)c(Br)c2=O)c1
scaled lipid accumulation score [4]: inactive: 0.057
scaled lipid accumulation score [5]: inactive: 0.038
scaled lipid accumulation score [6]: inactive: 0.056
scaled lipid accumulation score [1]: inactive: 0.014
scaled lipid accumulation score [2]: inactive: ≤ 0 and inactive: ≤ -0.001

CCCN(CCc1ccccc1)C1CCc2c(O)cccc2C1 (stereo not given) [(?)-PPHT hydrochloride]
scaled lipid accumulation score [2]: inactive: 0.386

N#C/C(=C(/N)Sc1ccccc1N)c1cccc(C(O)c2ccncc2)c1 (stereo not given) [MEK Inhibitor I]
scaled lipid accumulation score [1]: inactive: ≤ 0

CNC(=N)NCCC[C@H](N)C(=O)O [NG-Monomethyl-L-arginine acetate]
scaled lipid accumulation score [2]: inactive: ≤ -0.002

CNC(=N)NCCC[C@H](N)C(=O)O
scaled lipid accumulation score [2]: inactive: 0.076

Cc1cc(-c2ccc(/N=N/c3ccc4c(S(=O)(=O)O)cc(S(=O)(=O)O)c(N)c4c3O)c(C)c2)ccc1/N=N/c1ccc2c(S(=O)(=O)O)cc(S(=O)(=O)O)c(N)c2c1O
scaled lipid accumulation score [2]: inactive: 0.033
